The record followed here is PMC10726135.

This is one part of the list. At the low end of the ranking, values are background and their order means little. The protein was read in a cell extract, so binding may be indirect.

In the assay the target is T1, HNF4alpha8 (COS-7 nuclear extract) (UniProt P41235-5).
T1 sequence: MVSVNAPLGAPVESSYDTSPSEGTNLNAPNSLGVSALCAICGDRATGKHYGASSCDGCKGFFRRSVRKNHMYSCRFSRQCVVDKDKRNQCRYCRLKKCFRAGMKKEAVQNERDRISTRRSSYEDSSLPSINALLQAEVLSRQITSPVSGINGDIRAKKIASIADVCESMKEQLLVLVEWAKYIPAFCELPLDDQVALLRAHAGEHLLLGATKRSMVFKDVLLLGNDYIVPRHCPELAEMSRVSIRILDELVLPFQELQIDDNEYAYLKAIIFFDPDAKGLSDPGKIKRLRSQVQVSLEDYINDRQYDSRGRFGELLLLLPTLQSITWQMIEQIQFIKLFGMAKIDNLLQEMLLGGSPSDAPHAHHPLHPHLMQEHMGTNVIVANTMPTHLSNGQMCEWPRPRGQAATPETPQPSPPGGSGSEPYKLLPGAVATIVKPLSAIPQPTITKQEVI
The assay can be described thus: protein-binding microarray. Particulars: COS-7 nuclear extract on double-stranded Agilent 4x180k PBM; binding buffer, salt, pH and temperature not given; high values mean tight binding; double strand, one strand shown; sequences stand for … in …GCCTAGGGAGATTAGAGTATCGGTCGA
As to GTTTGACCTTTCACCCAGAAAAGGCTGTAA, the binding signal (log2 normalized intensity) worked out at 4.63. Consider AGCTGCTAAGTCTTTCCACACAGCCTGTCA, for which the binding signal (log2 normalized intensity) was -1.32. For the sequence GAGAGGGGGAGTGAAGGTTAGTACTCAGAA, the binding signal (log2 normalized intensity) is -0.819. The value for GAATATCTCAGCAGCCTGGCTGCTCGCAGT was -1.26. Then CTGTCCTGGACTTTCCTTTGTTGGGAGACT, with 1.6.

On to TGATCCCCTCTCCTTTGGTGCAAATACCAT, for which the binding signal (log2 normalized intensity) worked out at 1.67. The value for CTCTAGAGGGCTGCTTATCTAGGATGAGAA was -1.32; that for TCTGATCCCAATTTATCTTTCCAGATTGTT was 0.666. The value for CTACATAAGGGTAGAGACCTTTGTTTTGTT was 2.44.

Consider TATAAGAAACTGCTCCTGCTTGGGAGAACC, for which the binding signal (log2 normalized intensity) was -1.26. The value for CCTTACCTCCATTAACTAACCTTTGAACCA was 7.58.

Take AGGAGGAAGGACACTTAGAGATAAGGTAAC: the binding signal (log2 normalized intensity) was -1.19. Consider TTCTCTGGTCTGCGGTTGTGTAGACGCTCT, for which the binding signal (log2 normalized intensity) was 0.329. Then ATTTCAAAGGGAGCATATGTATGTCAGAGT, with 1.63; and ATGAACTTTGACCCACCTACATTGATATTC, with 5.5; and GTTGGACTGAGGACCACATGAGTAAACAAG, with -1.05.

Regarding ACTAGGCTACATGATACAGCCTTTTGCCCC, the binding signal (log2 normalized intensity) was determined as 3.9. The value for ATTTGATAAGGGTATGGATTCTGGGACCCA was 1.21. Then CCTCCCGGTCACTACAACAACGGCGGCCCA, with -1.34; and GAGTAACCTGCTTGTTTTCCCAACAGGTGT, with 0.577.

With GAAGTGAAGTTACAAAGGTCACGCTCCTGT, the binding signal (log2 normalized intensity) worked out at 4.99.

Regarding AAGAGAGAGTAGCTCCAAAAGGTGGACAAG, the binding signal (log2 normalized intensity) was -1.33. Take CCATTCTTGAGGACAGGCCAAATCCAGTAA: the binding signal (log2 normalized intensity) is -1.09. Then ACTGGATTCTCAGCCTCACCCTGGTGCTGC, with -1.28; and CTGGGGGAGTTTCCTGCCTGGTCCGCCCTT, with 1.74.

Take GTCTTAATAAGATAATAAGTGACCCAGGAG: the binding signal (log2 normalized intensity) was 2.27.

Regarding GATAAGGAACTGTTATCAAGTGAGAAACCA, the binding signal (log2 normalized intensity) is -1.21. On to ACCCAGGCAAAGTCCAGAAATAGCATCACG, for which the binding signal (log2 normalized intensity) was 1.85. The value for CCTGCCAGCTGTTATGAGTCTGTTGTCTAA was 1.13; that for TGCTTTAGGCCTCAAGACAAACAATAGATA was -1.16; that for GTGGGTATTTGGGGAGTTCTTTCTGCCAGA was 1.09.

In the case of ACTATTCCTTTGTTTAGACTTGGGGCCAAA, the binding signal (log2 normalized intensity) was found to be 1.51. Then TTAGGGGTTTGTCCAAGAAAAAGGAGCAGA, with -0.959.

As to AGGCCATTGCCTTTCTCTGTGTGTATGTGT, the binding signal (log2 normalized intensity) is 2.51. The value for TGAATATCTATTATTAGGTACAAACATACT was 0.456. Then AGATCTGGGCAATGTCAACAAATACTGACC, with 1.67; and GGCAGGATGCATGCACTTCATTGTGCACCC, with 1.62. The value for CACAGTAAGAGACTTCACCATCTGCAAGTG was -1.21.

Regarding AAGATTTATCAGGTCTTTCTTTCAGAACAG, the binding signal (log2 normalized intensity) was 0.553. The value for ATCAAAAACCATTTGACAATTTACAGTGTT was -0.415. Consider ACCTTTGAAACATATCCAGAATGTGTTTGC, for which the binding signal (log2 normalized intensity) was 1.44. Consider AGAAAGCTTTGGACTTTGGGCTGTGTTTTG, for which the binding signal (log2 normalized intensity) was 5.52. Then GCCTGAGAATGAGGGGCAGGCTTAGCTGGG, with -1.38. Consider CATACCAGGCAGAGGGTTAACCCCTATTAA, for which the binding signal (log2 normalized intensity) was 2.32. Then GGTTTAGCAAGAATACTGCTGGGTCAGTTT, with 1.43; and CAGTGACCCAAATATGGTCCCTGACCTTAA, with 4.16; and ATCTAAGTGGGTCTAGGTTCTGGGGTGATT, with 1.54.

In the case of ACACACCAAAACTCTCTCTCTGTGTCACAT, the binding signal (log2 normalized intensity) was -0.0599. The value for CAGTGACTAGCAGATTCTGTGTGGTAAAAG was 0.699. The value for TCTTGGCAGTGATCAGTGTTGAGAATCCCT was 0.126; that for ATGAATAACTTGAATTGATTGCCAAGAGGG was -1.28. The value for ACTGGAGCAAAGGTCACTCTTGCTAAGCTT was 5.06; that for GCTGCTTCTCGTCCCCGCCCGAGCCGAACC was 3.05.

On to CAGGGTTAAGGTTTTGTAACACAGAGGCAG, for which the binding signal (log2 normalized intensity) was 0.757. The value for TGCCCTTTGTCCAGGGTGAGAGGGACCCTT was 2.83. In the case of GGATGTCTTTTTCTGACCCATGGGTTGAGG, the binding signal (log2 normalized intensity) was 2.27. Then GGTATGTACTTTCTTTTGGCTCTCTCTCTT, with 1.06; and AACCCAGCAAACCTGTCTCTCTGCATTCCT, with -1.33; and CATCAAACACTCACTGGGAGAGAAAGCTAA, with -1.39.

As to GTGCAGATTCCACACTGGCTAGATAAGGCT, the binding signal (log2 normalized intensity) was -1.34. Take CTTTTATCTTAGGTAATAAGCCTGAATTCT: the binding signal (log2 normalized intensity) was -0.504. Then TTGCAAAATCCTTAGCAAATAGAGATGCAT, with -1.28; and AACTGACACTTGTTTGAATTGTGATAATAA, with 1.04. Take TCACCTTTGCTCTGATCTTTGACTTCTAGT: the binding signal (log2 normalized intensity) was 3.44. On to TCATGCTTTCATCTCCCCAACACTTAAAAC, for which the binding signal (log2 normalized intensity) was 2.8. For TGCAGAGAGAGAGGGAGACAACCTTTGGTC, the binding signal (log2 normalized intensity) worked out at 6.08.

Regarding AAGCAGAGGAGTGGCCATGATGCCATCTGG, the binding signal (log2 normalized intensity) was -1.34. Then TTGGGGAAGAATAGATTCCATAGATAAGAG, with -1.45; and CTACCTGACCTGGCATACTACAGAAATCTT, with -0.612; and ATTAGCTGGGGACCCGTCGCTGCTGCACAC, with -1.35. The value for CCTTCAAATCAGCCAGTGATTCAACTCTGA was 0.78; that for AAGAAGGTTTACTCAAGCAAAAAGTTTGGA was -0.349; that for ATGGAAGCCTTACCAGTAGGACCACATTCA was -1.33.
